# Test results: publication PMC10668032
# The list shows a part of the results. At the low end of the ranking, values are background and their order means little.
# Target: SIX1-Q177R homeodomain (UniProt Q15475)
# Assay: universal protein binding microarray
# Settings: Universal all-10-mer PBM (8x60K, AMADID 030236), 300 nM GST-tagged protein, Alexa Fluor 488 anti-GST; buffer, salt, pH and temperature not stated; high values mean tight binding; most listed sequences are background and not binding sites; double strand, one strand shown
row,Sequence,binding signal
1,AACATATC,-0.00863 E-score
2,CTTATACA,0.0531 E-score
3,GTATTGAA,0.0724 E-score
4,AGTACTTC,-0.17 E-score
5,ATTGAATC,-0.175 E-score
6,AACACCTG,0.445 E-score
7,CGTCGAAG,-0.191 E-score
8,AGGCTCAT,-0.113 E-score
9,GCCCCCCA,-0.0772 E-score
10,AAGCCATC,-0.153 E-score
11,ACCTAAGC,0.0688 E-score
12,AATCTGAA,-0.176 E-score
13,ACTAAATA,-0.01 E-score
14,ACTGCCCA,0.0497 E-score
15,AAAACACA,0.188 E-score
16,AACAATCT,-0.196 E-score
17,CCTACAAA,0.00881 E-score
18,GTCAGCGA,-0.146 E-score
19,ACCGTACC,0.125 E-score
20,AACGGCTC,-0.101 E-score
21,CAATCGAA,-0.117 E-score
22,ATTGGCCA,-0.0169 E-score
23,ATGTAAAC,0.0561 E-score
24,ACATTGAT,-0.104 E-score
25,CTGCCGCC,-0.0445 E-score

row,Sequence,binding signal
1,GATCAAGC,0.0656 E-score
2,AAATATGT,-0.0304 E-score
3,TATATAAA,-0.111 E-score
4,AAGATTTA,-0.0129 E-score
5,CCCACCGA,-0.00518 E-score
6,AGATCACA,0.0681 E-score
7,ACGCAGTA,-0.0424 E-score
8,AAGAAGGG,0.0114 E-score
9,ATCAATGC,-0.269 E-score
10,CATGTGAA,-0.182 E-score
11,GCACGGTA,0.165 E-score
12,CTTGGCGA,-0.0813 E-score
13,AAACGAGG,-0.0939 E-score
14,ATTTGATG,-0.149 E-score
15,CCAAATCA,-0.0398 E-score
16,AGCGACCA,-0.112 E-score
17,CTGTTCGC,0.00161 E-score
18,ATAGGTAG,-0.158 E-score
19,GATCAAAC,-0.0659 E-score
20,CCCTGTAC,0.173 E-score
21,AAAGGTAT,0.147 E-score
22,ACTGGCAT,-0.0661 E-score
23,CCAGGAAC,-0.00204 E-score
24,CCAATATC,0.0301 E-score
25,AAGATTAG,-0.275 E-score

row,Sequence,binding signal
1,ACAACGCA,-0.0627 E-score
2,ATTGGGCC,-0.313 E-score
3,AAGCTTAA,-0.0635 E-score
4,AGCGTTAG,-0.0286 E-score
5,ATCCAGGC,-0.0874 E-score
6,ACGCCCGC,0.0389 E-score
7,ACTTTGGA,-0.0529 E-score
8,AAGGTCCG,0.00919 E-score
9,ATTGAGGG,0.00442 E-score
10,GAATGTCA,-0.197 E-score
11,GTGCACAC,0.271 E-score
12,CAGGGAGA,-0.0511 E-score
13,AAGCCTCA,-0.196 E-score
14,GTTCATAA,-0.178 E-score
15,ATCACATA,0.0612 E-score
16,GAGACTCC,0.14 E-score
17,ATCTCGGA,-0.0811 E-score
18,CAATTTTC,-0.126 E-score
19,ACAGTCGC,-0.0349 E-score
20,TATTTGCA,-0.276 E-score
21,ATTTCTAA,-0.166 E-score
22,CTTAGTCC,-0.26 E-score
23,AAGGACCA,-0.089 E-score
24,AAGACGGG,-0.0964 E-score
25,ACTGCGGC,-0.22 E-score

row,Sequence,binding signal
1,TTCTGAAA,-0.166 E-score
2,AACTTTCA,-0.113 E-score
3,CAGTTTTC,-0.108 E-score
4,CAATGACA,0.198 E-score
5,TGACGCCA,0.178 E-score
6,GATCAATA,-0.196 E-score
7,AAGCCGAT,-0.161 E-score
8,ACTCCCTG,0.163 E-score
9,GGACCTCC,-0.179 E-score
10,CTAGAGTC,-0.13 E-score
11,AATGTCGA,-0.18 E-score
12,CACAAGCA,0.107 E-score
13,CTGTCCAC,-0.199 E-score
14,GGCGATCA,-0.118 E-score
15,GCGACGAA,-0.196 E-score
16,AATAAAGA,0.126 E-score
17,CTCGCCCA,0.0836 E-score
18,AGTGGTAG,0.157 E-score
19,CTGATCGA,-0.183 E-score
20,CCCCCCCG,0.218 E-score
21,AGAATTTG,-0.109 E-score
22,CCGGTGAC,0.0956 E-score
23,CATTCCGA,-0.0785 E-score
24,GGTTAAGA,0.0477 E-score
25,GAGTTCCA,-0.0662 E-score

row,Sequence,binding signal
1,GTTGGGAA,-0.191 E-score
2,ACTTCGAG,-0.21 E-score
3,GGCGCTGA,-0.141 E-score
4,GAGGACAA,-0.00825 E-score
5,GCAATTAA,-0.0798 E-score
6,GGTCTCAC,0.0109 E-score
7,GCAGGCCA,-0.182 E-score
8,GGTGGTAC,-0.00286 E-score
9,GATACTCC,0.223 E-score
10,GGGTGCAC,0.28 E-score
11,CCCCGCGA,0.16 E-score
12,CATGGTAA,-0.0286 E-score
13,CCTCAAAA,-0.167 E-score
14,AGGGGTAA,0.224 E-score
15,ACGCGTAC,0.0975 E-score
16,ACGTACAA,-0.195 E-score
17,CGCTGAAA,-0.115 E-score
18,ATTGAAAG,-0.118 E-score
19,CTTATCCC,-0.00404 E-score
20,ATTCAAAC,-0.18 E-score
21,AAATCATA,-0.13 E-score
22,ATGAATCA,-0.19 E-score
23,ACTGAGTC,-0.0101 E-score
24,GAGCATCA,-0.28 E-score
25,GTCGCCGA,0.0743 E-score

row,Sequence,binding signal
1,CGCATGTA,-0.0958 E-score
2,TGCGGCCA,-0.221 E-score
3,ATAAGGGC,-0.0279 E-score
4,ACTATATA,0.0613 E-score
5,CAGATGTA,-0.176 E-score
6,ACATTTAG,0.00825 E-score
7,AGGATGTG,-0.0948 E-score
8,AGGGTTCC,0.0789 E-score
9,AACTTAGT,-0.194 E-score
10,AGAGTCAT,0.187 E-score
11,AAATCAAC,-0.139 E-score
12,CCCATGTC,-0.0132 E-score
13,AGGGGCCG,-0.141 E-score
14,GATGCGGC,-0.182 E-score
15,GCCCGCCC,0.053 E-score
16,ACTCTTCC,-0.0971 E-score
17,CTAGCGTC,-0.0683 E-score
18,GGGCAAGA,-0.0872 E-score
19,ACTTATGC,-0.0872 E-score
20,TTAGTAAA,0.0011 E-score
21,AAACCCGT,0.0451 E-score
22,GCGTAAAC,0.0476 E-score
23,ATGCAGCC,-0.377 E-score
24,CCATCGAC,-0.255 E-score
25,CGCGATCA,0.0476 E-score

row,Sequence,binding signal
1,AGTTCCGA,-0.118 E-score
2,CTCATGTC,-0.104 E-score
3,TGATAAAA,-0.219 E-score
4,GCCGTGAA,-0.276 E-score
5,CAATAATA,0.0135 E-score
6,ATCATTTA,-0.141 E-score
7,ATAAGTAA,-0.0646 E-score
8,AAAATATG,-0.168 E-score
9,ACTGTAGC,-0.0891 E-score
10,AAGAGGCA,-0.121 E-score
11,TGGAAAAA,0.1 E-score
12,AGAGGTTC,-0.0738 E-score
13,ATCTGAGA,-0.217 E-score
14,ACAACCGA,-0.0845 E-score
15,AAGTAAAA,-0.284 E-score
16,AGAAGAGC,-0.213 E-score
17,CCGTCGAA,-0.227 E-score
18,ACTCCGAA,0.137 E-score
19,CCACGTCA,0.0507 E-score
20,CTATTACC,0.0412 E-score
21,ATAACGTC,-0.011 E-score
22,AGGGCACG,0.034 E-score
